Data on 25 molecules can be found in article PMC4336329 (PLoS ONE, 2015).

Molecules are shown by their SMILES. Screen size: about 310,000 compounds; about 14,000 (4.5%) showed an effect of 50% or more. Effects have a minus sign here. Some of the results follow.
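Also: peak tail current of the secondary pulse compared with the same well before compound.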

This test deals with human ether-à-go-go-related gene (hERG) potassium channel (human, UniProt Q12809). In words: primary screen, population patch clamp on CHO cells stably expressing hERG.
Sequence of human ether-à-go-go-related gene (hERG) potassium channel (Q12809 whole entry, looked up): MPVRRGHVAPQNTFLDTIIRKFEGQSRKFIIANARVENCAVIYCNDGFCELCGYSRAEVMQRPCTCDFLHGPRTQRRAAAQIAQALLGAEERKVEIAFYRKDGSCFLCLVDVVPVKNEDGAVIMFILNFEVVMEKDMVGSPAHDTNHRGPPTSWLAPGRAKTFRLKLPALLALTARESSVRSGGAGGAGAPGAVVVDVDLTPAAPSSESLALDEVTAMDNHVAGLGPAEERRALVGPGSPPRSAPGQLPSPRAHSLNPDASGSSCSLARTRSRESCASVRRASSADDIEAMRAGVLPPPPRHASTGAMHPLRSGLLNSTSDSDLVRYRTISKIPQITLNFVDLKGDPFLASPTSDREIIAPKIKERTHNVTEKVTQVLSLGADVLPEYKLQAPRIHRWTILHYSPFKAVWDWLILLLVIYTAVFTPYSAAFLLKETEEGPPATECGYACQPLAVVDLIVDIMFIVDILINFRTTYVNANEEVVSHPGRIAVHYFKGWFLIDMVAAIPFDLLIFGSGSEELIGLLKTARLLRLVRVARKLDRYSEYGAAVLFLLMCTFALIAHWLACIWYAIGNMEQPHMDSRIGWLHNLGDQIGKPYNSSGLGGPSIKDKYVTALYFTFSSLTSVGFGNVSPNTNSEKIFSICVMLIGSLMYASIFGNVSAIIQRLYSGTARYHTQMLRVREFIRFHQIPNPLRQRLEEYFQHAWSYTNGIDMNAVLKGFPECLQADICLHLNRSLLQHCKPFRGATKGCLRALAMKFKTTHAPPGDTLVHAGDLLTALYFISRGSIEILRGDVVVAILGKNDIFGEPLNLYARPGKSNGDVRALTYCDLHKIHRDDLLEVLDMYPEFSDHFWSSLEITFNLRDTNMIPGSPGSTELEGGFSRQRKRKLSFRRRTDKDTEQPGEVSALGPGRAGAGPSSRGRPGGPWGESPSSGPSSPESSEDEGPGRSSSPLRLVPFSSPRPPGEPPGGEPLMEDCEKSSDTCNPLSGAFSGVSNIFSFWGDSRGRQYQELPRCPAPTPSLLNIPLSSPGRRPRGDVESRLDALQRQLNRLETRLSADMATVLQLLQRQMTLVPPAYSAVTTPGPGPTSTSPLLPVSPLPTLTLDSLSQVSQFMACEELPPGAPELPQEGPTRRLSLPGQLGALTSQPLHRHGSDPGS
On to `Cc1ccccc1NC(=O)CC1C(=O)Nc2ccccc2N1CC(=O)N(C)C1CCS(=O)(=O)C1` (stereo not shown), for which the “hERG current change (%, negative = inhibition) at 10uM” value worked out at 6.56%. As for `O=C(NCc1ccccc1)c1onc(CSc2nc3ccccc3[nH]2)c1C(=O)NCc1ccccc1`, the “hERG current change (%, negative = inhibition) at 10uM” value was -2.16%. Next, `C/C(=N\NC(=O)C(O)c1ccccc1)c1cccnc1` (stereo not shown): 24.5%. For `Cc1cccc(/C(N)=N/OC(=O)c2ccc(Br)o2)c1`, the “hERG current change (%, negative = inhibition) at 10uM” value came to 11.7%.

For `CCNCCNC(=O)c1c(O)c2cccc3c2n(c1=O)CCC3.Cl`, the “hERG current change (%, negative = inhibition) at 10uM” value is -3.98%. Next, `Cc1nnc(-c2cnn(C)c2N)n1Cc1ccccc1F`: 19.6%; `CN(C)c1nc(Nc2ccc(Cl)c(Cl)c2)nc(N(C)C)n1`: 6.76%; `Cc1cc([N+](=O)[O-])ccc1NC(=O)CSc1nncn1-c1cccnc1`: -42.2%. Consider `CC(C)CNC(=O)c1ccccc1NC(=O)c1ccc(CSc2ccccc2)cc1`, for which the “hERG current change (%, negative = inhibition) at 10uM” value is 11.2%.

For `Cc1cc(C)n(C(=O)c2ccc(C)c(S(=O)(=O)N3CCCC3)c2)n1`, the “hERG current change (%, negative = inhibition) at 10uM” value is -11.8%.

`O=C(Nc1ccc(C(=O)Nc2ccccc2Cl)cc1)c1cccnc1`: the “hERG current change (%, negative = inhibition) at 10uM” value is 5.11%. With `CCOc1ccccc1N(CC(=O)NC1CCCC1)C(=O)CCCC(=O)Nc1ccccn1` the figure was -8.6%; with `COc1ccc(OC)c(Nc2nc(N)nc(CSc3nnc(N)s3)n2)c1`, -3.49%.

In the case of `Cc1cc(Cl)ccc1C(=O)C1CCCN(C(=O)c2n[nH]c3c2CCCC3)C1` (stereo not shown), the “hERG current change (%, negative = inhibition) at 10uM” value is reported as 11.6%.

As for `O=C(COc1ccccc1Br)NC1CC1`, the “hERG current change (%, negative = inhibition) at 10uM” value came to 18.1%. Next, `CCOC(=O)c1[nH]c2cc3c(cc2c1NC(=O)CN1CCN(CCO)CC1)OCO3`: -25.8%; `Cc1cc(C)c(C)c(S(=O)(=O)Nc2cccnc2)c1C`: 11.1%; `CCCC1CCC(C(=O)Nn2cnc3ccccc3c2=O)CC1` (stereo not shown): -20.2%. Consider `CCN(CC)c1cccc(OCC(=O)N2c3ccccc3CC2C)c1` (stereo not shown), for which the “hERG current change (%, negative = inhibition) at 10uM” value is -0.158%. With `CNNCc1ccc(C(=O)NC(C)C)cc1.Cl` the figure was 7.55%; with `Cc1onc(-c2ccccc2)c1C(=O)NC(CC(=O)O)c1ccc(OC(C)C)cc1` (stereo not shown), 8.3%; with `O=C(N/N=C/c1cccs1)C(O)c1ccccc1` (stereo not shown), 19.3%. `CCN(c1cccc(C)c1)S(=O)(=O)c1ccc2c(c1)N(C(C)=O)CCS2`: the “hERG current change (%, negative = inhibition) at 10uM” value was -15%. Next, `COc1ccccc1OCC(=O)Nc1cc2c(cc1C(=O)O)OCCCO2`: 9.79%.

Take `O=C(c1ccc(OC2CCN(CCc3ccccc3)CC2)cc1)N1CCCC(CCCO)C1` (stereo not shown): the “hERG current change (%, negative = inhibition) at 10uM” value is -13.4%.
